Assays:
MAVS [1] = target: T1, MAVS (Homo sapiens, UniProt Q7Z434); assay: In vitro MAVS aggregation assay (SDD-AGE); details: GST-RIG-I(N), K63-Ub4, mitochondria preincubated with lactate (5 mM, 10 mM) or pyruvate
MAVS [2] = target: T1, MAVS; assay: Lactate-MAVS binding (biotin-lactate pulldown, immunoprecipitation, in vitro binding)
HeLa cells = assay: Immunofluorescence cellular localization of peptides in HeLa cells; details: HeLa cells pretreated with peptides; MAVS or Tat antibody staining; data not shown
Protocol: Immunofluorescent Confocal Microscopy. Cells were fixed with 3% paraformaldehyde for 20 min at 25° C. and permeabilized for 20 min with 0.5% Tween-20. Samples were blocked with 2% goat serum in phosphate-buffered saline (PBS) for 30 min. Anti-MAVS (1:500, Santa Cruz) and anti-TAT (1:500, Abcam) antibodies were used to detect the MAVS protein and TM peptides, respectively. Staining was visualized with secondary antibodies and the images were captured with a digital camera under a confocal microscope.
This property has been used to deliver large molecules or even small particles into the cells for testing their biological functions by overcoming the lipophilic barrier of the cell membranes. Cellular localization of the control and TM peptides was assessed using the immunofluorescence assay in which HeLa cells were pretreated with the peptides and then stained with MAVS or Tat antibody and then imaged by confocal microscopy. […] The effect of TM peptide on RLR induced type-I IFN production was then determined.

[3] = assay type: binding

T1 sequence (Q7Z434 2-540 limits assumed): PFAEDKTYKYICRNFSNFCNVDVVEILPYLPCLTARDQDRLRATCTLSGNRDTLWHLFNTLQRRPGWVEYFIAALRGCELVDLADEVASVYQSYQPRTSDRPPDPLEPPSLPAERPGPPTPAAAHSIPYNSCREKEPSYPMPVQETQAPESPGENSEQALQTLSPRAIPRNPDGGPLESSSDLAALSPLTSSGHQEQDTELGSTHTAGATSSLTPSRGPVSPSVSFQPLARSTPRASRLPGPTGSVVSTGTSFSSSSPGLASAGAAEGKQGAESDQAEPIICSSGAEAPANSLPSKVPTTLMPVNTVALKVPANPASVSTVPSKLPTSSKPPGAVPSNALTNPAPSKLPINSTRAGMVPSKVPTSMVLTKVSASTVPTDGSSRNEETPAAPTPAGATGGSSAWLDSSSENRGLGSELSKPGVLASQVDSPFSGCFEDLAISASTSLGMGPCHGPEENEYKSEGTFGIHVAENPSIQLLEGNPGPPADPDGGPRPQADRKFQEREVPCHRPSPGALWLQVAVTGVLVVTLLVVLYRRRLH

| Compound | MAVS aggregation induced by activated RIG-I (MAVS [1]) | binding of MAVS in in vitro binding assays (MAVS [2]; in vitro) | entry into cells (HeLa cells) | lactate pulled down by peptide ([3]; immunoprecipitation with Tat antibody, different doses of peptide) | binding to biotin-lactate ([3]; mass spectrometry of in vitro biotin-lactate pulldown products, data not shown) | binding of lactate to MAVS (MAVS [2]; in vitro binding assay, biotin-labeled lactate, MAVS protein translated in vitro, with control or TM peptide) |
| --- | --- | --- | --- | --- | --- | --- |
| CC(O)C(=O)O (stereo not drawn) [lactate] | impaired MAVS aggregation in a dose dependent manner | bind to lactate in a dose-dependent manner | – | – | – | – |
| TM peptide: peptide containing MAVS TM domain (514-535aa) with a trans-activator of transcription (TAT) tag placed in its N terminal region (SEQ ID NO:24) (YGRKKRRQRRRAGALWLQVAVTGVLVVTLLVVLY) | – | – | found to enter into cells | specifically pulled down | could bind to biotin-lactate | markedly interrupted |
